40 sequences from the supplement of paper PMC7826260 can be followed below.

This is one part of the list. The data describe in vitro nicking of single-stranded DNA by Rep domains (1 h at 37 °C, 3 µM enzyme); the outer parts of the 90-letter strands are left off. Uncut reads are compared with the no-enzyme pool on a log2 scale; uncut sequences lie near 0, cut ones below; no hit call is given. Counts are relative to all reads; values above 0 arise when much of the pool is cut.

The assay relates to T1, Rep nickase domain of tomato golden mosaic virus.
T1 sequence (residues 1-124 of Rep, tag left off): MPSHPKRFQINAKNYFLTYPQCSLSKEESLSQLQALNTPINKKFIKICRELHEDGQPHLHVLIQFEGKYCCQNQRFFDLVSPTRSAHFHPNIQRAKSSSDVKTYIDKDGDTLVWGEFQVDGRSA
Briefly: uncleaved DNA left, log2 of reads against the no-enzyme library (log2 ratio); higher = less cleavage (more negative = more Rep cleavage of the k-mer); sequences stand for … in CTCGTCCG…ACCGGAGA
The procedure:
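A pool of 90-nt single-stranded DNAs with seven random bases just before the constant AC of the nick site (name = the seven bases) was cut by 3 µM recombinant His6-SUMO-tagged Rep nickase domain (300 nM DNA, 50 mM HEPES pH 8.0, 50 mM NaCl, 1 mM MnCl2, 1 h, 37 °C, three replicates). Uncut DNA was amplified and sequenced.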
In the case of CCGGATC, the “uncleaved DNA left (log2)” value was 0.0896.

For the sequence TACAACG, the “uncleaved DNA left (log2)” value is -0.138.

As for TTATACA, the “uncleaved DNA left (log2)” value is -0.0212.

As to CGATGGA, the “uncleaved DNA left (log2)” value is -0.072.

In the case of GAGCGGT, the “uncleaved DNA left (log2)” value was determined as 0.0958.

With TATTAGT, the “uncleaved DNA left (log2)” value is -0.569.

On to AACATGG, for which the “uncleaved DNA left (log2)” value was -0.00867.

ATCACAT: the “uncleaved DNA left (log2)” value stood at 0.00262.

Consider AACACAC, for which the “uncleaved DNA left (log2)” value is -0.0399.

Take CAGGCTG: the “uncleaved DNA left (log2)” value turned out to be 0.0703.

Take CAATAAT: the “uncleaved DNA left (log2)” value is -4.05.

Take GCTTACA: the “uncleaved DNA left (log2)” value turned out to be 0.108.

GCTTTAC: the “uncleaved DNA left (log2)” value was -0.0375.

Consider ATTGCGC, for which the “uncleaved DNA left (log2)” value was -0.0576.

Consider TTTCCCA, for which the “uncleaved DNA left (log2)” value was -0.0534.

Turning to AATGGTT, the “uncleaved DNA left (log2)” value was 0.172.

AGATTAT: the “uncleaved DNA left (log2)” value stood at 0.07.

As to GTAAGCA, the “uncleaved DNA left (log2)” value stood at 0.0252.

Take GTGTAGA: the “uncleaved DNA left (log2)” value worked out at 0.218.

CTATTGG: the “uncleaved DNA left (log2)” value stood at 0.0448.

On to GCACACC, for which the “uncleaved DNA left (log2)” value came to 0.00645.

On to GAGGCGC, for which the “uncleaved DNA left (log2)” value was -0.0176.

For the sequence GCCGAGT, the “uncleaved DNA left (log2)” value is -0.0125.

In the case of TTTTGTC, the “uncleaved DNA left (log2)” value is -0.197.

For the sequence CCCTATA, the “uncleaved DNA left (log2)” value was -0.0656.

Consider GCTCAAC, for which the “uncleaved DNA left (log2)” value is -0.0748.

Take GGGGTAG: the “uncleaved DNA left (log2)” value is 0.0248.

Take AGTCGTA: the “uncleaved DNA left (log2)” value was -0.059.

For the sequence GTCACCG, the “uncleaved DNA left (log2)” value was found to be 0.188.

Take CCTAGAG: the “uncleaved DNA left (log2)” value was 0.0791.

Regarding AGCAGAG, the “uncleaved DNA left (log2)” value was determined as 0.00894.

Take CCATTGC: the “uncleaved DNA left (log2)” value is -0.192.

Take CCACGTA: the “uncleaved DNA left (log2)” value is 0.0173.

With TTCGCTG, the “uncleaved DNA left (log2)” value was -0.00228.

On to TTCCTAC, for which the “uncleaved DNA left (log2)” value is -0.0318.

For the sequence TAGGAGC, the “uncleaved DNA left (log2)” value was 0.141.

As for GGTCCTA, the “uncleaved DNA left (log2)” value was determined as 0.129.

On to TGGTCTC, for which the “uncleaved DNA left (log2)” value was -0.0349.

As to AACCGGC, the “uncleaved DNA left (log2)” value is -0.0483.

As for GACCGAT, the “uncleaved DNA left (log2)” value was 0.0823.
